# Reference: the supplement of paper PMC5919970
# Where a name gives a salt, the structure may show the parent alone. Whole data set: some 2,000 compounds, median “fractional viability relative to vehicle” near 0.91, cut for the lowest 2% near 0.045. The list shows a part of the results.
# Tested on: TYKNU
# Experiment: fractional viability relative to vehicle; TYKNU is a high-grade serous ovarian cancer line; higher = less growth inhibition
# Details: 72 h
# How it was run: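 TYKNU control cells or lentiCRISPRv2 knockout derivatives were plated at 500 cells per well in duplicate into drug-stamped 384-well plates holding a ~2100-compound library at 2 or 10 μM. Culture was in RPMI 1640 with 10% FBS at 37 °C in 5% CO2, with 72 h of drug treatment. Viability was measured by Cell Titer Glo luminescence, and the averaged duplicate treatment wells were normalised to duplicate control wells at the same plate position.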
# [1] = 2uM, genotype: DNM1L knockout (sgDNM1L #1)
# [2] = 2uM, genotype: sgCTRLA1 (non-targeting control)
# [3] = 10uM, genotype: DNM1L knockout (sgDNM1L #1)
# [4] = 10uM, genotype: sgCTRLA1 (non-targeting control)
Structure (SMILES),fractional viability [1],fractional viability [2],fractional viability [3],fractional viability [4]
C=CC[C@@H]1/C=C(\C)C[C@H](C)C[C@H](OC)[C@H]2O[C@@](O)(C(=O)C(=O)N3CCCC[C@H]3C(=O)O[C@H](/C(C)=C/[C@@H]3CC[C@@H](O)[C@H](OC)C3)[C@H](C)[C@@H](O)CC1=O)[C@H](C)C[C@@H]2OC [Tacrolimus (FK506)],0.767,1.05,0.47,0.85
O=C([O-])c1ccccc1O.[Na+] [Sodium salicylate],1.08,1.09,0.913,1.03
COc1ccc2[nH]cc(CCNC(C)=O)c2c1 [Melatonin],1.13,1.01,0.94,1.04
Cc1ccc(C(=O)c2cc(O)c(O)c([N+](=O)[O-])c2)cc1 [Tolcapone],1.04,0.931,0.84,0.809
CCN(Cc1ccncc1)C(=O)C(CO)c1ccccc1 (stereo not drawn) [Tropicamide],0.962,0.999,1.02,1.04
CC(=O)O/N=C1\C(=O)N(Cc2cc(Cl)ccc2Cl)c2ccc(Cl)cc21,0.699,1.05,0.525,0.821
Cc1ncc([N+](=O)[O-])n1CCO [Metronidazole],1.24,1.17,1.28,1.18
O=C(Cc1cccc(OC(F)(F)F)c1)Nc1ccc(CCCCc2nnc(NC(=O)Cc3ccccn3)s2)nn1,0.206,0.227,0.19,0.0912
CCN(CC)CC#CCOC(=O)C(O)(c1ccccc1)C1CCCCC1 (stereo not drawn) [Oxybutynin],1.03,1.06,0.774,0.996
CCN(CC)CC#CCOC(=O)C(O)(c1ccccc1)C1CCCCC1 (stereo not drawn) [Oxybutynin chloride],1.07,1.07,0.767,1.01
CCn1cc(C(=O)O)c(=O)c2ccc(C)nc21 [Nalidixic acid],0.85,1.11,0.812,1.1
COc1ccc(-c2oc3c(CC=C(C)C)c(O[C@@H]4O[C@H](CO)[C@@H](O)[C@H](O)[C@H]4O)cc(O)c3c(=O)c2O[C@@H]2O[C@@H](C)[C@H](O)[C@@H](O)[C@H]2O)cc1 [Icariin],1,1.06,0.803,0.924
COc1ccc2cc(CCC(C)=O)ccc2c1 [Nabumetone],0.915,0.99,0.818,1
O=C(CCCN1CC=C(n2c(=O)[nH]c3ccccc32)CC1)c1ccc(F)cc1 [Droperidol],1.11,1.14,0.885,1.12
CCO[C@@H]1OC(=O)C[C@@H]1NC(=O)[C@@H]1CCCN1C(=O)[C@@H](NC(=O)c1ccc(N)c(Cl)c1)C(C)(C)C,0.968,1.18,0.898,1.09
O=C(Nc1cc(C(F)(F)F)ccc1N1CCCCC1)c1ccncc1,1.01,1.1,0.908,1.05
CCCC[C@@H](C=O)NC(=O)[C@H](CC(C)C)NC(=O)OCc1ccccc1 [Calpeptin],0.825,1.01,0.836,0.716
Cc1ccc(NC(=O)c2ccc(CN3CCN(C)CC3)cc2)cc1Nc1nc(-c2cccnc2)cs1 [Masitinib (AB1010)],1.29,1.09,0.779,0.775
COc1nc(C)nc(Cl)c1NC1=NCCN1 [Moxonidine],0.917,1.08,0.926,1.1

Structure (SMILES),fractional viability [1],fractional viability [2],fractional viability [3],fractional viability [4]
Cc1ccc(S(=O)(=O)NC(=O)NN2CC3CCCC3C2)cc1 (stereo not drawn) [Gliclazide],0.92,1.07,1.03,1.04
Cc1cc(Cn2cnc3c2CC(C(=O)O)N(C(=O)C(c2ccccc2)c2ccccc2)C3)ccc1N(C)C (stereo not drawn),0.819,1.03,0.659,0.918
O=c1c(O)c(-c2cc(O)c(O)c(O)c2)oc2cc(O)cc(O)c12 [Myricetin],0.91,1.03,0.877,0.992
O=c1ncccn1[C@@H]1O[C@H](CO)[C@@H](O)[C@H]1O [Zebularine],0.97,1.06,0.676,0.938
O=C(CCCCCCNC(=O)c1cnc(N(c2ccccc2)c2ccccc2)nc1)NO [Rocilinostat (ACY-1215)],0.708,0.801,0.34,0.29
NC(CO)(CO)CO [Trometamol],0.775,1.1,0.811,1.11
Clc1ccc(C(Cn2ccnc2)OCc2c(Cl)cccc2Cl)c(Cl)c1 (stereo not drawn) [Isoconazole nitrate],0.855,1.05,0.545,0.894
CNc1nc(Nc2cnn([C@H]3CCN(C4COC4)C[C@@H]3F)c2Cl)ncc1C(F)(F)F,0.945,0.991,0.995,0.718
NC(=O)N1c2ccccc2C=Cc2ccccc21 [Carbamazepine],1.01,1.23,0.922,1.07
CC(C)n1nc(-c2cc3cc(O)ccc3[nH]2)c2c(N)ncnc21,0.422,0.417,0.12,0.117
O=c1cc(-c2ccc(O)cc2)oc2cc(O)cc(O)c12 [Apigenin],1.03,1.14,1.01,1.14
CO[C@H]1/C=C/O[C@@]2(C)Oc3c(C)c(O)c4c(c3C2=O)C2=NC3(CCN(CC(C)C)CC3)NC2=C(NC(=O)/C(C)=C\C=C\[C@H](C)[C@H](O)[C@@H](C)[C@@H](O)[C@@H](C)[C@H](OC(C)=O)[C@@H]1C)C4=O [Rifabutin],1.01,1.1,0.608,0.932
C[C@@H](N)[C@H]1CC[C@H](C(=O)Nc2ccncc2)CC1,0.982,1.19,0.953,1.21
COc1ccc(-c2cc(=O)c3c(O)cc(O)cc3o2)cc1O [Diosmetin],1.35,1.27,0.942,1.14
CN1CC[C@H](c2c(O)cc(O)c3c(=O)cc(-c4ccccc4Cl)oc23)[C@H](O)C1 [Flavopiridol HCl],0.707,0.334,0.741,0.339
CN1CC[C@H](c2c(O)cc(O)c3c(=O)cc(-c4ccccc4Cl)oc23)[C@H](O)C1 [Flavopiridol (Alvocidib)],0.463,0.297,0.442,0.324
Nc1nc(Cl)nc2c1ncn2[C@@H]1O[C@H](CO)[C@@H](O)[C@@H]1F [Clofarabine],0.312,0.309,0.261,0.278
O=C1CN2Cc3c(ccc(Cl)c3Cl)N=C2N1 [Anagrelide HCl],1.06,1.18,0.579,0.967
CN(C)Cc1c(C(=O)NCCOc2ccc(C(=O)NO)cc2)oc2ccccc12,0.184,0.244,0.0877,0.133

Structure (SMILES),fractional viability [1],fractional viability [2],fractional viability [3],fractional viability [4]
O=c1[nH]c(=O)n(C2CC(O)C(CO)O2)cc1Br (stereo not drawn) [Bromodeoxyuridine (BrdU)],0.823,0.962,0.859,0.64
CC(=O)N1c2ccc(-c3ccc(C(=O)O)cc3)cc2[C@H](Nc2ccc(Cl)cc2)C[C@@H]1C,0.281,0.395,0.237,0.208
CC[C@H]1OC(=O)[C@H](C)[C@@H](O[C@H]2C[C@@](C)(OC)[C@@H](O)[C@H](C)O2)[C@H](C)[C@@H](O[C@@H]2O[C@H](C)C[C@H](N(C)C)[C@H]2O)[C@](C)(O)C[C@@H](C)/C(=N\OCOCCOC)[C@H](C)[C@@H](O)[C@]1(C)O [Roxithromycin],0.964,1.2,0.879,1.14
Nc1nc(F)nc2c1ncn2[C@@H]1O[C@H](CO)[C@@H](O)[C@@H]1O [Fludarabine],0.24,0.29,0.196,0.153
CC(C)CC(=O)Nc1n[nH]c2c1CN(C(=O)C1CCN(C)CC1)C2(C)C,0.298,0.302,0.316,0.308
O=C(NCCS(=O)(=O)c1ccc(C(F)(F)F)cn1)c1ccc(Cl)cc1,0.677,0.949,0.668,0.744
CCOC(=O)[C@H](CCc1ccccc1)N[C@H]1CCc2ccccc2N(CC(=O)O)C1=O [Benazepril HCl],1.1,1.2,0.902,1.14
O=C(Nc1c[nH]nc1-c1nc2ccc(CN3CCOCC3)cc2[nH]1)NC1CC1,0.346,0.4,0.362,0.272
Cn1cc(-c2ccc(F)c(C(F)(F)F)c2)nc1C1CCN(c2ncnc3[nH]ncc23)CC1,0.735,0.848,0.331,0.583
COC1=C(OC)C(=O)C(CCCCCCCCCCO)=C(C)C1=O [Idebenone],0.901,0.996,0.805,1.1
COc1cc(OC)c2c(=O)[nH]c(-c3cc(C)c(OCCO)c(C)c3)nc2c1,1.15,1.12,0.973,1.03
O=C(c1cccc(Cl)c1F)N1CCN(Cc2cccc(Nc3nccs3)n2)CC1,0.615,0.91,0.436,0.746
CC(C)[C@H]1C(=O)N[C@@H](CCCNC(=N)N)C(=O)NCC(=O)N[C@@H](CC(=O)O)C(=O)N[C@H](Cc2ccccc2)C(=O)N1C [Cilengitide],0.804,0.833,0.619,0.755
Cc1ccc(C(=O)Nc2ccc(CN3CCN(C)CC3)c(C(F)(F)F)c2)cc1C#Cc1cnc2cccnn12,0.227,0.185,0.0344,0.0177
O=C(Nc1cccc2c(=O)cc(-c3nnn[nH]3)oc12)c1ccc(OCCCCc2ccccc2)cc1 [Pranlukast],1.1,0.946,0.927,0.916
CC(C)(C)NC[C@H](O)COc1nsnc1N1CCOCC1 [Timolol Maleate],1.04,1.1,1.05,1.03
N#Cc1ccc(-c2c(-c3ncn[nH]3)sc(N3CCOCC3)c2C#N)c(F)c1,0.627,0.584,0.282,0.225
C=C1c2cccc(O)c2C(=O)C2=C(O)[C@]3(O)C(=O)C(C(N)=O)=C(O)[C@@H](N(C)C)[C@@H]3[C@@H](O)[C@H]12 [Methacycline HCl],1.23,1.3,0.591,0.611
CC(C)(C)c1[nH]cnc1/C=c1\[nH]c(=O)/c(=C/c2ccccc2)[nH]c1=O [Plinabulin (NPI-2358)],0.179,0.133,0.261,0.201
